# Some of the results follow. Further columns of the screen follow, without active or inactive calls.
# Columns and labels:
# Experiment in all cases: Primary Screen for Target Class Profiling of Small Molecule Inhibitors of Methyltransferases
# [1] = target: Glycine N-methyltransferase (Homo sapiens) (UniProt Q14749); conditions: purified enzyme, MTase-Glo SAH luminescence; measured here: GNMT inhibition; at 40 µM; stronger effect = lower value
# Method in brief: (§1)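 Each enzyme was assayed with SAM and its substrate. SAH formation detected by MTase-Glo luminescence; single-point 40 uM screen[…].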
# [2] = target: Guanidinoacetate N-methyltransferase (Homo sapiens) (UniProt Q14353); conditions: purified enzyme, MTase-Glo SAH luminescence; measured here: GAMT inhibition; at 40 µM; stronger effect = lower value
# Method in brief: as §1
# [3] = target: Histamine N-methyltransferase (Homo sapiens) (UniProt P50135); conditions: purified enzyme, MTase-Glo SAH luminescence; measured here: HNMT inhibition; at 40 µM; stronger effect = lower value
# Method in brief: as §1
# [4] = target: Nicotinamide N-methyltransferase (Homo sapiens) (UniProt P40261); conditions: purified enzyme, MTase-Glo SAH luminescence; measured here: NNMT inhibition; at 40 µM; stronger effect = lower value
# Method in brief: as §1
# [5] = target: Phenylethanolamine N-methyltransferase (Homo sapiens) (UniProt P11086); conditions: purified enzyme, MTase-Glo SAH luminescence; measured here: PNMT inhibition; at 40 µM; stronger effect = lower value
# Method in brief: as §1
# On the % scale 0 is the no-effect control and ±100 the full control effect.
Compound,"activity change, negative = inhibition [1]","activity change, negative = inhibition [2]","activity change, negative = inhibition [3]","activity change, negative = inhibition [4]","activity change, negative = inhibition [5]"
CCCCNC(=O)c1cc2n(n1)CC(C)(C(=O)NCCC(C)C)N(C)C2=O (stereo unspecified),8.83%,1.48%,10%,11.3%,9.62%
C[C@@H]1CCN(C(=O)CC#N)C[C@@H]1N(C)c1ncnc2[nH]ccc12,–,0.142%,–,-21.4%,-6.77%
CCCCCC1CC1CC1CC1CCCCCCCC(=O)O (stereo unspecified),–,-0.907%,–,-31.8%,2.03%
COc1ccc(OC)c(S(=O)(=O)N2CCCC(Cn3c(C)cnc3C3CC3)C2)c1 (stereo unspecified),-3.19%,0%,-0.468%,-5.31%,1.2%
CCC(C)NC(=O)c1ccc2c(=O)n(C(C)C)c3nn(CC(=O)Nc4ccc(C)c(F)c4)c(=O)n3c2c1 (stereo unspecified),4.23%,0%,1.39%,2.32%,3.82%
COc1cc(/C=C/C(=O)OC2CC3CCC2(C)C3(C)C)ccc1O (stereo unspecified),0.976%,6.63%,9.79%,-13.1%,-3.23%
COC1C2=C(COC2=O)C2(C)CCCC(C)(CO)C2C1OC(=O)c1ccccc1 (stereo unspecified),2.5%,2.04%,8.06%,-8.46%,2.5%
COc1ccc(NC(=O)c2ccc3c(c2)OCC(=O)N(C)C3)c(F)c1,-4.86%,-4.03%,0.864%,-7.31%,-4.35%
Cc1ccc(N2CCN(S(=O)(=O)c3cc4c(cc3C)n(C)c(=O)n4C)CC2)c(C)c1,-6.13%,0.675%,-8.6%,-12.2%,-12%
COc1ccccc1OCCNC(=O)C(C)C1CCOCC1 (stereo unspecified),1.06%,-3.21%,4.33%,0.441%,-7.59%
CCC/C=C\C=C/CCc1cc(O)c([C@@H]2O[C@H](CO)[C@@H](O)[C@H](O)[C@H]2O)c(O)c1C(=O)OC,-2.31%,0.417%,7.16%,-17.6%,-11%
C=CCN1C(=O)c2ccc(-c3ccco3)n2CC1(C)C(=O)NCc1ccc(Cl)cc1 (stereo unspecified),-5.94%,-13.8%,5.85%,-6.19%,-4.97%
Cc1ccc(C(=O)N2CCc3sc(C(=O)NCc4cc(F)cc(F)c4)cc3C2)cc1,-8.5%,-10.9%,-19.2%,-17.9%,-13.6%
CCN1C(=O)c2cc3ccccc3n2CC1(C)C(=O)NCC(=O)NCCc1ccco1 (stereo unspecified),-8.69%,0%,2.64%,-1.38%,-3.11%
Cc1nc(CN2C[C@H](C(=O)N3CCN(c4ccccn4)CC3)C[C@@H]2c2ccc(F)cc2)cs1,-4.03%,0.946%,0.222%,-9.09%,-1.34%
Cc1cccc(CNC(=O)Cn2ccc3cc(S(=O)(=O)N4CCC(C)CC4)ccc32)c1,-0.118%,2.08%,-0.331%,-6.59%,-1.2%
